Where “and” joins values, the source holds several entries; their conditions need not be identical. Equal values may be shown once. This continues a long series; more values of the same kind are listed elsewhere.
Assay: xn = mol fraction of the nth substance listed

CC(C)O + O
Conditions	viscosity
293.15 K, 100 kPa, x1 = 0.167	3.627 mPa·s
293.15 K, 101 kPa, x1 = 0.023	1.51 mPa·s
293.15 K, 101 kPa, x1 = 0.06	2.42 mPa·s
293.15 K, 101 kPa, x1 = 0.101	3.15 mPa·s
293.15 K, 101 kPa, x1 = 0.19	3.78 mPa·s
293.15 K, 101 kPa, x1 = 0.3	3.726 mPa·s
293.15 K, 101 kPa, x1 = 0.331	3.75 mPa·s
293.15 K, 101 kPa, x1 = 0.4	3.481 mPa·s
293.15 K, 101 kPa, x1 = 0.448	3.47 mPa·s
293.15 K, 101 kPa, x1 = 0.462	3.4 mPa·s
293.15 K, 101 kPa, x1 = 0.5	3.18 mPa·s
293.15 K, 101 kPa, x1 = 0.6	2.888 mPa·s
293.15 K, 101 kPa, x1 = 0.615	2.96 mPa·s
293.15 K, 101 kPa, x1 = 0.7001	2.655 mPa·s
293.15 K, 101 kPa, x1 = 0.788	2.6 mPa·s
293.15 K, 101 kPa, x1 = 0.8999	2.395 mPa·s
293.15 K, 101.33 kPa, x1 = 0.0322	1.61 mPa·s
293.15 K, 101.33 kPa, x1 = 0.114	3.145 mPa·s
293.15 K, 101.33 kPa, x1 = 0.231	3.817 mPa·s
293.15 K, 101.33 kPa, x1 = 0.25	3.859 mPa·s
293.15 K, 101.33 kPa, x1 = 0.268	3.843 mPa·s
298.15 K, 100 kPa, x1 = 0.1	2.44 mPa·s
298.15 K, 100 kPa, x1 = 0.167	2.951 mPa·s
298.15 K, 100 kPa, x1 = 0.25	3.049 mPa·s
298.15 K, 100 kPa, x1 = 0.4	2.865 mPa·s
298.15 K, 100 kPa, x1 = 0.5	2.63 mPa·s
298.15 K, 100 kPa, x1 = 0.8	2.104 mPa·s
298.15 K, 100 kPa, x1 = 0.9	2.031 mPa·s
298.15 K, 101 kPa, x1 = 0.0322	1.45 mPa·s and 1.424 mPa·s
298.15 K, 101 kPa, x1 = 0.0439	1.576 mPa·s
298.15 K, 101 kPa, x1 = 0.0764	2.198 mPa·s
298.15 K, 101 kPa, x1 = 0.114	2.741 mPa·s and 2.801 mPa·s
298.15 K, 101 kPa, x1 = 0.1497	2.854 mPa·s
298.15 K, 101 kPa, x1 = 0.2173	3.097 mPa·s
298.15 K, 101 kPa, x1 = 0.231	3.481 mPa·s and 3.422 mPa·s
298.15 K, 101 kPa, x1 = 0.2855	3.053 mPa·s
298.15 K, 101 kPa, x1 = 0.3	3.068 mPa·s
298.15 K, 101 kPa, x1 = 0.4	2.894 mPa·s
298.15 K, 101 kPa, x1 = 0.4036	2.862 mPa·s
298.15 K, 101 kPa, x1 = 0.412	3.38 mPa·s
298.15 K, 101 kPa, x1 = 0.413	3.383 mPa·s
298.15 K, 101 kPa, x1 = 0.5	2.667 mPa·s and 2.646 mPa·s
298.15 K, 101 kPa, x1 = 0.5263	2.581 mPa·s
298.15 K, 101 kPa, x1 = 0.6	2.441 mPa·s
298.15 K, 101 kPa, x1 = 0.6897	2.283 mPa·s
298.15 K, 101 kPa, x1 = 0.7001	2.256 mPa·s
298.15 K, 101 kPa, x1 = 0.73	2.8 mPa·s and 2.757 mPa·s and 2.774 mPa·s
298.15 K, 101 kPa, x1 = 0.7874	2.177 mPa·s
298.15 K, 101 kPa, x1 = 0.7999	2.127 mPa·s
298.15 K, 101 kPa, x1 = 0.8475	2.106 mPa·s
298.15 K, 101 kPa, x1 = 0.8999	2.054 mPa·s
303.15 K, 100 kPa, x1 = 0.167	2.43 mPa·s
303.15 K, 101 kPa, x1 = 0.1	2.047 mPa·s
303.15 K, 101 kPa, x1 = 0.2	2.532 mPa·s
303.15 K, 101 kPa, x1 = 0.3	2.551 mPa·s and 2.579 mPa·s
303.15 K, 101 kPa, x1 = 0.4	2.425 mPa·s and 2.458 mPa·s
303.15 K, 101 kPa, x1 = 0.5	2.253 mPa·s and 2.285 mPa·s
303.15 K, 101 kPa, x1 = 0.6	2.076 mPa·s
303.15 K, 101 kPa, x1 = 0.7	1.96 mPa·s
303.15 K, 101 kPa, x1 = 0.7001	1.934 mPa·s
303.15 K, 101 kPa, x1 = 0.7999	1.824 mPa·s
303.15 K, 101 kPa, x1 = 0.8	1.854 mPa·s
303.15 K, 101 kPa, x1 = 0.8999	1.772 mPa·s
303.15 K, 101 kPa, x1 = 0.9	1.79 mPa·s
303.15 K, 101.33 kPa, x1 = 0.0322	1.23 mPa·s
303.15 K, 101.33 kPa, x1 = 0.114	2.072 mPa·s
303.15 K, 101.33 kPa, x1 = 0.231	2.558 mPa·s
308.15 K, 101 kPa, x1 = 0.0322	1.085 mPa·s and 1.072 mPa·s
308.15 K, 101 kPa, x1 = 0.1	1.718 mPa·s
308.15 K, 101 kPa, x1 = 0.114	1.885 mPa·s and 1.924 mPa·s
308.15 K, 101 kPa, x1 = 0.2	2.127 mPa·s
308.15 K, 101 kPa, x1 = 0.231	2.41 mPa·s and 2.369 mPa·s
308.15 K, 101 kPa, x1 = 0.3	2.153 mPa·s and 2.176 mPa·s
308.15 K, 101 kPa, x1 = 0.4	2.062 mPa·s and 2.089 mPa·s
308.15 K, 101 kPa, x1 = 0.412	2.402 mPa·s
308.15 K, 101 kPa, x1 = 0.413	2.406 mPa·s
308.15 K, 101 kPa, x1 = 0.5	1.926 mPa·s and 1.954 mPa·s
308.15 K, 101 kPa, x1 = 0.6	1.787 mPa·s and 1.817 mPa·s
308.15 K, 101 kPa, x1 = 0.7	1.696 mPa·s
308.15 K, 101 kPa, x1 = 0.7001	1.669 mPa·s
308.15 K, 101 kPa, x1 = 0.73	2.065 mPa·s and 2.042 mPa·s and 2.057 mPa·s
308.15 K, 101 kPa, x1 = 0.7999	1.585 mPa·s
308.15 K, 101 kPa, x1 = 0.8	1.609 mPa·s
308.15 K, 101 kPa, x1 = 0.8999	1.538 mPa·s
308.15 K, 101 kPa, x1 = 0.9	1.558 mPa·s
313.15 K, 101 kPa, x1 = 0.1	1.466 mPa·s
313.15 K, 101 kPa, x1 = 0.2	1.811 mPa·s
313.15 K, 101 kPa, x1 = 0.3	1.835 mPa·s and 1.859 mPa·s
313.15 K, 101 kPa, x1 = 0.4	1.765 mPa·s and 1.793 mPa·s
313.15 K, 101 kPa, x1 = 0.5	1.657 mPa·s and 1.683 mPa·s
313.15 K, 101 kPa, x1 = 0.6	1.544 mPa·s and 1.57 mPa·s
313.15 K, 101 kPa, x1 = 0.7	1.476 mPa·s
313.15 K, 101 kPa, x1 = 0.7001	1.449 mPa·s
313.15 K, 101 kPa, x1 = 0.7999	1.379 mPa·s
313.15 K, 101 kPa, x1 = 0.8	1.403 mPa·s
313.15 K, 101 kPa, x1 = 0.8999	1.341 mPa·s
313.15 K, 101 kPa, x1 = 0.9	1.362 mPa·s
313.15 K, 101.33 kPa, x1 = 0.0322	0.942 mPa·s
313.15 K, 101.33 kPa, x1 = 0.114	1.471 mPa·s
313.15 K, 101.33 kPa, x1 = 0.231	1.808 mPa·s
318.15 K, 101 kPa, x1 = 0.0322	0.857 mPa·s and 0.848 mPa·s
318.15 K, 101 kPa, x1 = 0.1	1.268 mPa·s
318.15 K, 101 kPa, x1 = 0.114	1.402 mPa·s and 1.419 mPa·s
318.15 K, 101 kPa, x1 = 0.2	1.56 mPa·s
318.15 K, 101 kPa, x1 = 0.231	1.779 mPa·s and 1.742 mPa·s
318.15 K, 101 kPa, x1 = 0.3	1.58 mPa·s and 1.603 mPa·s
318.15 K, 101 kPa, x1 = 0.4	1.525 mPa·s and 1.55 mPa·s
318.15 K, 101 kPa, x1 = 0.412	1.794 mPa·s
318.15 K, 101 kPa, x1 = 0.413	1.778 mPa·s
318.15 K, 101 kPa, x1 = 0.5	1.437 mPa·s and 1.462 mPa·s
318.15 K, 101 kPa, x1 = 0.6	1.345 mPa·s and 1.368 mPa·s
318.15 K, 101 kPa, x1 = 0.7	1.29 mPa·s
318.15 K, 101 kPa, x1 = 0.7001	1.265 mPa·s
318.15 K, 101 kPa, x1 = 0.73	1.58 mPa·s and 1.558 mPa·s and 1.576 mPa·s
318.15 K, 101 kPa, x1 = 0.7999	1.208 mPa·s
318.15 K, 101 kPa, x1 = 0.8	1.23 mPa·s
318.15 K, 101 kPa, x1 = 0.8999	1.176 mPa·s
318.15 K, 101 kPa, x1 = 0.9	1.194 mPa·s
323.15 K, 100 kPa, x1 = 0.1	1.066 mPa·s
323.15 K, 100 kPa, x1 = 0.25	1.297 mPa·s
323.15 K, 100 kPa, x1 = 0.4	1.286 mPa·s
323.15 K, 100 kPa, x1 = 0.5	1.216 mPa·s
323.15 K, 100 kPa, x1 = 0.8	1.036 mPa·s
323.15 K, 100 kPa, x1 = 0.9	1.009 mPa·s
323.15 K, 101 kPa, x1 = 0.1	1.108 mPa·s
323.15 K, 101 kPa, x1 = 0.2	1.337 mPa·s and 1.355 mPa·s
323.15 K, 101 kPa, x1 = 0.3	1.374 mPa·s and 1.392 mPa·s
323.15 K, 101 kPa, x1 = 0.4	1.328 mPa·s and 1.356 mPa·s
323.15 K, 101 kPa, x1 = 0.5	1.256 mPa·s and 1.279 mPa·s
323.15 K, 101 kPa, x1 = 0.6	1.179 mPa·s and 1.201 mPa·s
323.15 K, 101 kPa, x1 = 0.7	1.137 mPa·s
323.15 K, 101 kPa, x1 = 0.7001	1.113 mPa·s
323.15 K, 101 kPa, x1 = 0.7999	1.064 mPa·s
323.15 K, 101 kPa, x1 = 0.8	1.085 mPa·s
323.15 K, 101 kPa, x1 = 0.8999	1.035 mPa·s
323.15 K, 101 kPa, x1 = 0.9	1.053 mPa·s
323.15 K, 101.33 kPa, x1 = 0.0322	0.764 mPa·s
323.15 K, 101.33 kPa, x1 = 0.114	1.128 mPa·s
323.15 K, 101.33 kPa, x1 = 0.231	1.373 mPa·s
